According to paper PMC4336329 (PLoS ONE, 2015):
Among all 310,000 compounds or so, about 2,200 (0.71%) showed an effect of 50% or more. Effects have a minus sign here. The list shows a part of the results. Where a SMILES comes first, the peptide text is derived from it. The star is where a group is joined. Boc = CC(C)(C)OC(=O)*

Target: human ether-à-go-go-related gene (hERG) potassium channel (human, UniProt Q12809)
Assay: primary screen, population patch clamp on CHO cells stably expressing hERG

human ether-à-go-go-related gene (hERG) potassium channel, sequence (Q12809 whole entry, looked up): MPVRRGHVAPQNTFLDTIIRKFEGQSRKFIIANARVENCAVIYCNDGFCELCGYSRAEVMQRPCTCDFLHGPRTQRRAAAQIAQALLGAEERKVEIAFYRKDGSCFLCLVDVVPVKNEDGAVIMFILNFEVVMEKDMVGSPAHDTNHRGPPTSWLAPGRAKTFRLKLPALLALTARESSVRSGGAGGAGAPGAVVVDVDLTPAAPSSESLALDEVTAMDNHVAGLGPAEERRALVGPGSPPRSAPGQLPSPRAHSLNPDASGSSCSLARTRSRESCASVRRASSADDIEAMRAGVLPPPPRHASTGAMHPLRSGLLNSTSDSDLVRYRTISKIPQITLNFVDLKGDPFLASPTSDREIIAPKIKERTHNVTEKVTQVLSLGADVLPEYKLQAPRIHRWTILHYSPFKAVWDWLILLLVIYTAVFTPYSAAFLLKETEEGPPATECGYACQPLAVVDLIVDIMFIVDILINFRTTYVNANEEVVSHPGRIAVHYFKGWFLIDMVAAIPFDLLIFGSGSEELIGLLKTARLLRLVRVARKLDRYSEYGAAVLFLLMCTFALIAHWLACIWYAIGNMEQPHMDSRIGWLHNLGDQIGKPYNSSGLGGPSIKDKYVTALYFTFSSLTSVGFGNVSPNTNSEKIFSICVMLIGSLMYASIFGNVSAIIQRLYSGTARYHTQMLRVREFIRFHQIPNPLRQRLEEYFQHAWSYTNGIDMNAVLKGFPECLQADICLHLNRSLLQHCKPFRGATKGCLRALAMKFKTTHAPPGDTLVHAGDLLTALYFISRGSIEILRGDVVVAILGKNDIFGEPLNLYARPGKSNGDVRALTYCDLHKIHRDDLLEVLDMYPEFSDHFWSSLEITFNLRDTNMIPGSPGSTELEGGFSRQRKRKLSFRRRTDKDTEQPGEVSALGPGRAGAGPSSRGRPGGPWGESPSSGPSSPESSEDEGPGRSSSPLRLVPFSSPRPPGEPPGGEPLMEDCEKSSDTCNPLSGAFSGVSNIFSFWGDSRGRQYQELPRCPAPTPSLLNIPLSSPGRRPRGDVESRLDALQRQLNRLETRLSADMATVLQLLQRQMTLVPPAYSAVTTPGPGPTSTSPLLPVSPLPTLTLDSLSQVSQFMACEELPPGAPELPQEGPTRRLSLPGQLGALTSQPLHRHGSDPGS

Point of comparison: Cc1ccccc1-c1nnc(SCc2ccc(F)cc2)o1, “hERG current change (%, negative = inhibition) at 1uM” value 9.31%. Against it:
- COc1cc(Cl)cc(/C=C/c2ccc3cccc(O)c3n2)c1OC — higher, 9.37%
- Cc1c(C(=O)N2CCN(C/C=C/c3ccccc3)CC2)oc2c(F)cccc12 — lower, 1.59%
- CC(C)n1c(O)c(N=NC(=O)CNC(=O)Cc2ccc(Cl)cc2)c2ccccc21 — higher, 10.4%
- CCN(Cc1ccncc1)C(=O)c1cc(COc2ccc(OC)cc2Cl)on1 — lower, 7.12%
- COc1ccccc1NC(=S)NCCc1c[nH]c2ccccc12 — higher, 10.6%
- c1ccc2c(Nc3ccc(N4CCOCC4)cc3)nc(N3CCOCC3)nc2c1 — lower, -10.3%
- CCNS(=O)(=O)c1ccc(CCC(=O)Nc2ccc3c(c2)OCO3)cc1 — higher, 13.6%
- COc1ccc(-c2cc(C(F)(F)F)nc(-n3cc(Br)cn3)n2)cc1 — lower, 9.29%
- C=CCSC1=C(C#N)C(c2ccccc2OCC)C(C#N)C(=O)N1 (centres unmarked) — lower, 8.47%
- Cc1ccc(-n2c(SCC(=O)NC3CCCCC3)nc3c(c2=O)SCC3)cc1 — higher, 9.81%
- Cc1cc(SCc2ccc(C(F)(F)F)cc2)nc(=O)[nH]1 — higher, 14.6%
- COc1ccc(/C=C/C(=O)OCc2cccc([N+](=O)[O-])c2)cc1 — higher, 13.6%
- CCCCOc1ccc(C(=O)NCCCC(=O)N2CCCCC2)cc1 — lower, 6.02%
- O=C(O)c1ccc(N/N=C/c2cc3cc4c(cc3nc2Cl)OCCO4)cc1 — lower, 7.95%
- Nc1nnc(SCCCC(=O)c2ccc(F)cc2)s1 — lower, 5.55%
- Cc1ccc2cc(C)c3nnc(SCc4ccc(C(=O)O)cc4)n3c2c1C — higher, 9.63%
- Cc1ccc(S(=O)(=O)Nc2ccccc2F)cc1C(=O)NCCCN1CCCC1=O — lower, -8.22%
- COC(=O)C1=C(C)N(CC2CC2)C(=NCc2cccc(Cl)c2)N[C@H]1c1ccccc1 — lower, -6.12%
- O=[N+]([O-])c1ccc(CNCc2cc(Cl)ccc2O)cc1 — lower, -0.51%
- Cc1cccc(OCC(=O)Nc2cc(C)on2)c1 — lower, -1.09%
- COc1ccc(C(=O)OCC(=O)NCC2CCCO2)cc1[N+](=O)[O-] (centres unmarked) — lower, 8.12%
- C=CCNC(=S)N/N=C/c1ccc(C)cc1C — higher, 12.3%
- COc1cc(SC)ccc1C(=O)NCc1ccc(C)cc1 — lower, 0.52%
- CC(NC(=O)C(NC(=O)C(Cc1c[nH]c2ccccc12)NC(=O)OC(C)(C)C)C(C)C)C(N)=O (stereo not drawn) (Boc-Trp-Val-Ala-NH2; configuration not given here) — higher, 15.8%
- CC(=O)c1cccc(NS(=O)(=O)c2ccc(-c3cc(C)no3)s2)c1 — lower, 7.31%
- O=C(c1ccccc1)c1ccc(NCCCn2ccnc2)c([N+](=O)[O-])c1 — lower, -65.4%
- CCOC(=O)[C@H]1[C@H]2COc3ccc(C)cc3[C@@H]2N2C(=O)[C@@H](CO)NC(=O)[C@@]12C — higher, 9.97%
- c1ccc(CN2CCN(c3ncccn3)CC2)cc1 — higher, 12.2%
- O=C(CSc1nc(O)cc(=O)n1-c1ccccc1)Nc1ccc2c3c(cccc13)CC2 — lower, 4.42%
- COc1cc2ccccc2cc1C(=O)Nc1nnc(-c2ccncc2)o1 — lower, -19.4%
- CN(C)C(=O)Oc1ccc2oc(=O)cc(-c3cc4ccccc4o3)c2c1 — higher, 17.1%
- O=C1C(=O)N(CCN2CCOCC2)C(c2cccnc2)/C1=C(/O)c1ccccc1 (centres unmarked) — higher, 13.3%
- Cc1[nH]nc(SCC(=O)N(C)c2ccccc2)c1[N+](=O)[O-] — lower, 5.91%
- COc1cc(/C=N\NC(=O)C2C(=O)NCC2c2ccccc2)cc(OC)c1O (centres unmarked) — higher, 10.1%
- C/C(=N\NC(=O)c1nnn(-c2nonc2N)c1CSc1ccccc1)c1cccnc1 — lower, 7.94%
- O=C(COC(=O)CCCOc1ccccc1)NNC(=O)c1ccc([N+](=O)[O-])cc1 — lower, 6.34%
- Cc1cc(NS(=O)(=O)c2ccc(NC(=S)Nc3ccc(Cl)cc3C)cc2)no1 — higher, 13.4%
- COc1cc(/C=N/N2CCOCC2)ccc1OCc1ccc(Cl)cc1 — lower, 3.52%
- Cn1ncc2c(NNC(=O)c3ccccc3Cl)ncnc21 — higher, 9.66%
- C/C(CC(=O)Nc1c(Cl)cccc1C(F)(F)F)=N\NC(=O)c1cnccn1 — higher, 12.3%
- O=C(Nc1ccc(F)cc1)c1cnc(-c2ccccc2)nc1-c1ccccc1 — lower, 4.6%
- CC(=O)Nc1cccc(C(=O)OCc2ccccc2)c1 — lower, 6.75%
- COc1ccc(NC(=O)c2nnn(CC(=O)Nc3ccc4c(c3)OCO4)c2N)cc1OC — higher, 17.5%
